Key:
[1] = target: T1, IL-7 receptor (IL-7R alpha chain and common gamma chain) on human T cells (human, UniProt P16871 21-459; P31785 23-369); assay: cell-based or functional assay
T1 sequence (looked up) 1: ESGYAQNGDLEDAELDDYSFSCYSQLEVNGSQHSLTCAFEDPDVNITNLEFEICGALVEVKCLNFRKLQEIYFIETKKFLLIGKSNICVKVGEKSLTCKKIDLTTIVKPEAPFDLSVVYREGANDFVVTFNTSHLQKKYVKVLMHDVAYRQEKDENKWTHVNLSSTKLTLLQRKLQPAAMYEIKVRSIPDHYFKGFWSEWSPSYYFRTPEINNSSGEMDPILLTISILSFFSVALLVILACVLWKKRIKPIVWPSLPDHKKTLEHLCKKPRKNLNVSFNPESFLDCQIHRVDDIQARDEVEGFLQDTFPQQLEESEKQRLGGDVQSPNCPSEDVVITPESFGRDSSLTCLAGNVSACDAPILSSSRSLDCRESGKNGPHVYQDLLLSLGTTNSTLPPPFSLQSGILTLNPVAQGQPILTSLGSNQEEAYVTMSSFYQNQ
T1 sequence (looked up) 2: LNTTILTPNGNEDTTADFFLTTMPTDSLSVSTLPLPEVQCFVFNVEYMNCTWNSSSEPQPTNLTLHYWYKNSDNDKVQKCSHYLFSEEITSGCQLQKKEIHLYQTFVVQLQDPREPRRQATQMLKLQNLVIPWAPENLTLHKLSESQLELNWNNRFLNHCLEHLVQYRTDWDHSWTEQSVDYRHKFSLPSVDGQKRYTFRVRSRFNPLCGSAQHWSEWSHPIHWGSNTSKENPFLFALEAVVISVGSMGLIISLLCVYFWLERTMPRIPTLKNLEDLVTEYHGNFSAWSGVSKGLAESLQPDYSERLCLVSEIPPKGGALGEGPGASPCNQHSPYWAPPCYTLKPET

[2] = target: T2, human PD-1 on activated CD4 T cells (human, UniProt Q15116 25-288); assay: cell-based or functional assay
[3] = target: T3, human huPD1-ECD_Fc (P1AD9704) (human, UniProt Q15116 in part); assay: SPR Biacore T200, sample captured by anti-PGLALA, huPD1-ECD-Fc injected; sample stressed 2 w/pH 7.4 +37°C
T3 construct: extracellular domain; In-house reagent; not shown: Fc part

[4] = target: T4, human IL7Rα-IL2Rg-Fc (P1AF4984) (human, UniProt P16871 21-239; P31785 23-262, limits assumed); assay: SPR Biacore T200, sample captured by anti-PGLALA, IL7Ra-IL2Rg-Fc injected; sample 2 w/pH 6.0, -80°C (reference)
T4 construct: In-house heterodimeric Fc fusion; also called IL7Ra-IL2Rg-Fc; human IL7Ralpha-IL2Rgamma-Fc heterodimer; not shown: Fc part
T4 sequence (looked up) 1: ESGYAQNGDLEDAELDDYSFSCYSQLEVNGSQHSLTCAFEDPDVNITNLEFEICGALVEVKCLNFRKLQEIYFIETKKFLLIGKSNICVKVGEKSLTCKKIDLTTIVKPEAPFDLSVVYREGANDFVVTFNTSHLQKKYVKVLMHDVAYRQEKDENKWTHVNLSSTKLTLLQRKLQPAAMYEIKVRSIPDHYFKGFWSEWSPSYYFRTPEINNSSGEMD
T4 sequence (looked up) 2: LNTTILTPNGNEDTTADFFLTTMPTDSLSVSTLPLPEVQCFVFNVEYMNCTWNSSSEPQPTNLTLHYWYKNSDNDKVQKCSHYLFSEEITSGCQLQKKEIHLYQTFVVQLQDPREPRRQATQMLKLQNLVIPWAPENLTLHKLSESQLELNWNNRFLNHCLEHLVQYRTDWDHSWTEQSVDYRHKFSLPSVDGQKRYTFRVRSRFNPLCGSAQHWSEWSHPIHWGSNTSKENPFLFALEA

[5] = target: T1, IL-7 receptor (IL-7R alpha chain and …); assay: cell-based or functional assay; remark: listed apart in the source
[6] = target: T2, human PD-1 on activated CD4 T cells; assay: cell-based or functional assay; remark: listed apart in the source
[7] = target: T4, human IL7Rα-IL2Rg-Fc (P1AF4984); assay: SPR Biacore T200, sample captured by anti-PGLALA, IL7Ra-IL2Rg-Fc injected; sample stressed 2 w/pH 6.0, +40°C
[8] = target: T1, IL-7 receptor (IL-7R alpha chain and …); assay: cell-based or functional assay; remark: listed apart in the source
[9] = target: T3, human huPD1-ECD_Fc (P1AD9704); assay: SPR Biacore T200, sample captured by anti-PGLALA, huPD1-ECD-Fc injected; sample stressed 2 w/pH 6.0, +40°C
[10] = target: T3, human huPD1-ECD_Fc (P1AD9704); assay: SPR Biacore T200, sample captured by anti-PGLALA, huPD1-ECD-Fc injected; sample 2 w/pH 6.0, -80°C (reference)
[11] = target: T4, human IL7Rα-IL2Rg-Fc (P1AF4984); assay: SPR Biacore T200, sample captured by anti-PGLALA, IL7Ra-IL2Rg-Fc injected; sample stressed 2 w/pH 7.4 +37°C

Potency reduction to PD1-IL7wt: EC50 (PD1+)/EC50 (PD1-IL7wt) [1]: 24.7 fold
STAT-5P AUC, PD1+ CD4 T cells [1]: 49
STAT-5P AUC, PD1-blocked CD4 T cells [1]: 16.8
Cis-delivery: fold increase in EC50, EC50 [with PD1bl]/EC50 [no PD1bl] [2]: 48.2 fold
Delta AUC (PD1+ vs PD1bl.) [2]: 32.1
Relative Active Concentration (RAC), binding relative to the non-stressed sample [3]: 113%
Relative Active Concentration (RAC), binding relative to the non-stressed sample [4]: 100%
Potency reduction to PD1-IL7wt: EC50 (PD1+)/EC50 (PD1-IL7wt) (batch P1AI5585-407, stable) [5]: 10 fold
Cis-delivery: fold increase in EC50, EC50 [with PD1bl]/EC50 [no PD1bl] (batch P1AI5585-407, stable) [6]: 120 fold
Relative Active Concentration (RAC), binding relative to the non-stressed sample [7]: 97%
EC50[active]/EC50 [active PD1-IL7wt] (batch P1AI5585-407) [8]: 15.3 fold
EC50[fresh]/EC50 [fresh PD1-IL7wt] (batch P1AI5585-407) [8]: 3920 fold
Relative Active Concentration (RAC), binding relative to the non-stressed sample [9]: 105%
Relative Active Concentration (RAC), binding relative to the non-stressed sample [10]: 100%
Relative Active Concentration (RAC), binding relative to the non-stressed sample [11]: 104%
B1: P1AI5585 (PD1-IL7v2.2, fully glycosylated; de-risked PD1 binder FV020519; IL7 D74K, G85K; (G2SG2)3 linker) (other)
light: DIVMTQSPDSLAVSLGERATINCKASESVDTSDNSFIHWYQQKPGQSPKLLIYRASTLESGVPDRFSGSGSGTDFTLTISSLQAEDVAVYYCQQNYDVPWTFGQGTKVEIKRTVAAPSVFIFPPSDEQLKSGTASVVCLLNNFYPREAKVQWKVDNALQSGNSQESVTEQDSKDSTYSLSSTLTLSKADYEKHKVYACEVTHQGLSSPVTKSFNRGEC
heavy 1: EVQLLESGGGLVQPGGSLRLSCAASGFSFSSYTMSWVRQAPGKGLEWVSAISGGGRDIYYPDSVKGRFTISRDNSKNTLYLQMNSLRAEDTAVYYCVLLTGRVYFALDSWGQGTLVTVSSASTKGPSVFPLAPSSKSTSGGTAALGCLVKDYFPEPVTVSWNSGALTSGVHTFPAVLQSSGLYSLSSVVTVPSSSLGTQTYICNVNHKPSNTKVDKKVEPKSCDKTHTCPPCPAPEAAGGPSVFLFPPKPKDTLMISRTPEVTCVVVDVSHEDPEVKFNWYVDGVEVHNAKTKPREEQYNSTYRVVSVLTVLHQDWLNGKEYKCKVSNKALGAPIEKTISKAKGQPREPQVCTLPPSRDELTKNQVSLSCAVKGFYPSDIAVEWESNGQPENNYKTTPPVLDSDGSFFLVSKLTVDKSRWQQGNVFSCSVMHEALHNHYTQKSLSLSPG
heavy 2: EVQLLESGGGLVQPGGSLRLSCAASGFSFSSYTMSWVRQAPGKGLEWVSAISGGGRDIYYPDSVKGRFTISRDNSKNTLYLQMNSLRAEDTAVYYCVLLTGRVYFALDSWGQGTLVTVSSASTKGPSVFPLAPSSKSTSGGTAALGCLVKDYFPEPVTVSWNSGALTSGVHTFPAVLQSSGLYSLSSVVTVPSSSLGTQTYICNVNHKPSNTKVDKKV[sequence of human IgG1 Fc with changes omitted]GGSGGGGSGGGGSGGDCDIEGKDGKQYESVLMVSIDQLLDSMKEIGSNCLNNEFNFFKRHICDANKEGMFLFRAARKLRQFLKMNSTGKFDLHLLKVSEKTTILLNCTGQVKGRKPAALGEAQPTKSLEENKSLKEQKKLNDLCFLKRLLQEIKTCWNKILMGTKEH
notes: Immunoconjugate: anti-PD-1 IgG1 (FV020519), knob-into-hole, PGLALA; IL-7 variant fused to the C-terminus of the knob heavy chain; also called P1AI5585-006 (transient)

Source: patent publication US20250361279A1 (Hoffmann-La Roche, published 2025)
